{"source": "PubChem BioAssay AID743255", "about": "(National Center for Advancing Translational Sciences (NCATS), 2014)", "note": "Hit rate of the full screen: of about 390,000 compounds, about 910 (0.23%) were called active. Another 5% or so got no clear call; they are omitted. Calls come from the whole dose curve; as a rule, active = well fitted inhibition curve with a large enough effect; inconclusive = small, poorly fitted or top-dose-only effect; inactive = no such curve, though single readings can be large or run the other way. Only a part is listed here, and it is no random draw. % is set by controls: 0 for no effect and ±100 for the full control effect; potency is the fitted concentration of half-maximal effect.", "data": [{"biological_target": "Ubiquitin carboxyl-terminal hydrolase 1 (Homo sapiens) (UniProt O94782)", "sequence (O94782 whole entry, looked up)": "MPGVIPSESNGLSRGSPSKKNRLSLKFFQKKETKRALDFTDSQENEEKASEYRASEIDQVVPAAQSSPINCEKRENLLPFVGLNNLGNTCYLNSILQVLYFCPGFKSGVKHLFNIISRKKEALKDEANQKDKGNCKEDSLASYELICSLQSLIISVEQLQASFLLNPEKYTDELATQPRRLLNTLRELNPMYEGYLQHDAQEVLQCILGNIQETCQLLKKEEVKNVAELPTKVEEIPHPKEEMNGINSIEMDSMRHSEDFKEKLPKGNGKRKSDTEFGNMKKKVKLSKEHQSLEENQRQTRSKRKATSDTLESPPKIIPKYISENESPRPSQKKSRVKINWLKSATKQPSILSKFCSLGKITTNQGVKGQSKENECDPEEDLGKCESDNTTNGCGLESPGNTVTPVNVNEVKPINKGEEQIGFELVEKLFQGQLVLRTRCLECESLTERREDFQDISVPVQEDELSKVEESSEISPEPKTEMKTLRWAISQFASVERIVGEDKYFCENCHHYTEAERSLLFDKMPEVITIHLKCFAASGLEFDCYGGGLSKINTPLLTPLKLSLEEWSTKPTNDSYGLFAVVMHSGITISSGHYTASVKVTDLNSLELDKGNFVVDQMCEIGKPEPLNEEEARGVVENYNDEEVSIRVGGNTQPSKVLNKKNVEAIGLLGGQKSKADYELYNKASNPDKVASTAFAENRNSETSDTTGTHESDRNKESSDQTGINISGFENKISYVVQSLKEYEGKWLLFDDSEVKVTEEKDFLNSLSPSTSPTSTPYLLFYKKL", "test": "Inhibitors of USP1/UAF1: Primary Screen; note: nearly all actives have a fitted effect of over 60% in size", "details": "recombinant USP1/UAF1, Ub-Rhodamine cleavage fluorescence; activity change, negative = inhibition: at 57.1 µM (top of the series)", "summary_of_the_method": "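Step one: compound is pinned into 1nM USP1/UAF1 in HEPES pH 7.8 buffer with TCEP. Step two: 15 min room-temperature incubation. Step three: Ub-Rho (150nM final) starts cleavage, tracked by fluorescence over six one-minute reads.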", "values": [{"smiles": "CCOC(=O)N(C)C[C@H]1OCc2cnnn2CCCC(=O)N([C@@H](C)CO)C[C@@H]1C", "activity change, negative = inhibition": "inactive: -15.3%"}, {"smiles": "COC(=O)c1cc2sccc2n1Cc1nc(-c2cccc(Cl)c2)oc1C", "activity change, negative = inhibition": "inactive: -24.4%"}, {"smiles": "CCN1CCN(CC(O)COc2ccc(C)c(C)c2)CC1", "note": "(stereo not drawn)", "activity change, negative = inhibition": "inactive: -14.9%"}, {"smiles": "Cc1nn(Cc2ccc(F)cc2)c(C)c1NC(=O)c1noc2c1CCc1ccccc1-2", "activity change, negative = inhibition": "inactive: -25.5%"}, {"smiles": "COc1cccc(CNC(=O)CN2C(=O)COc3ccc(S(=O)(=O)N4CCCCC4)cc32)c1", "activity change, negative = inhibition": "inactive: -4.64%"}, {"smiles": "Oc1[nH]c2ccccc2c1N=Nc1ccccc1F", "activity change, negative = inhibition": "inactive: 279%"}, {"smiles": "CCCNC(=O)Cn1c(=O)/c(=C\\c2ccc(-c3ccc([N+](=O)[O-])cc3)o2)s/c1=C\\C(=O)C(C)(C)C", "activity change, negative = inhibition": "inactive: 122%"}, {"smiles": "COc1ccc2c(C=Nc3c(C)n(C)n(-c4ccccc4)c3=O)c(O)n(Cc3ccco3)c(=O)c2c1", "activity change, negative = inhibition": "inactive: 91%"}, {"smiles": "O=C(C[C@H]1C/C=C\\CC[C@H](Cc2ccc(F)cc2)C(=O)OC[C@H]2CCCN2C1=O)N[C@@H](CO)Cc1ccccc1", "activity change, negative = inhibition": "inactive: -27.5%"}, {"smiles": "C#Cc1ccc([C@H]2C=C(C(=O)NCc3ccccc3)O[C@@H](OCc3ccc(CO)cc3)C2)cc1", "activity change, negative = inhibition": "inactive: -23.5%"}, {"smiles": "O=C(NCc1ccc(OC(F)(F)F)cc1)c1cccc2c1C(=O)c1ccc(N3CCC(Cc4ccccc4)CC3)cc1S2(=O)=O", "activity change, negative = inhibition": "inactive: 390%"}, {"smiles": "Cc1ccc(-c2c(C(=O)NCc3ccc(F)cc3)oc(=O)c3ccccc23)cc1", "activity change, negative = inhibition": "inactive: -7.82%"}, {"smiles": "O=C1c2ccccc2-c2cccc(NS(=O)(=O)c3ccc(C(F)(F)F)cc3)c21", "Potency": "active: 28.2 µM"}, {"smiles": "COC(C[C@H](O)C[C@@H](O)COCc1ccccc1)OC", "activity change, negative = inhibition": "inactive: -25%"}, {"smiles": "CN(C)CCCC1(c2ccc(F)cc2)OCc2cc(C#N)ccc21", "note": "(stereo not drawn)", "activity change, negative = inhibition": "inactive: -14.7%"}, {"smiles": "C=CCNC(=O)C12CCC(C)(C(=O)C1Br)C2(C)C", "note": "(stereo not drawn)", "activity change, negative = inhibition": "inactive: -21%"}, {"smiles": "COCCCNC(=O)C1CCC(CNS(=O)(=O)c2ccc(OC)cc2)CC1", "note": "(stereo not drawn)", "activity change, negative = inhibition": "inactive: -32.3%"}, {"smiles": "CC(C)(C)[C@@H]1COC(=O)[C@H](Cc2ccc(F)cc2)CC/C=C\\C[C@@H](CC(=O)N(CCO)Cc2ccccc2)C(=O)N1", "activity change, negative = inhibition": "inactive: -27.3%"}, {"smiles": "Cc1ccccc1Nc1c(-c2cccnc2)nc2cccc(C)n12", "activity change, negative = inhibition": "inactive: -18.6%"}, {"smiles": "CN(c1ccccc1)c1ccc(/C=C(\\CCC(=O)O)c2nc3ccccc3s2)cc1[N+](=O)[O-]", "activity change, negative = inhibition": "inactive: -12.7%"}, {"smiles": "Cc1ccc(-c2nc(-c3cc4cccc(OCc5cccc(F)c5)c4oc3=O)no2)cc1", "activity change, negative = inhibition": "inactive: 30.1%"}, {"smiles": "C[C@@H]1CN([C@H](C)CO)C(=O)CCCn2nncc2CO[C@H]1CN(C)C(=O)Nc1ccc2c(c1)OCO2", "activity change, negative = inhibition": "inactive: -15.6%"}, {"smiles": "N#C/C(=C/c1ccc(N2CCCCC2)o1)c1cccc(F)c1", "Potency": "active: 17.8 µM"}, {"smiles": "O=c1oc(-c2cccc(Cl)c2)nc2c1cnn2-c1ccccc1", "activity change, negative = inhibition": "inactive: 25.3%"}, {"smiles": "COc1ccc(NC(=O)[C@@H]2[C@@H]3C(=O)N(C4CCCCC4)C(=O)[C@@H]3C3c4ccccc4C=CN32)cc1", "note": "(stereo partly drawn)", "Potency": "active: 31.6 µM"}, {"smiles": "C=CCn1c(O)c(N=Nc2ccccc2O)c2ccccc21", "activity change, negative = inhibition": "inactive: 108%"}, {"smiles": "O=C(NCc1cc(C(F)(F)F)ccc1Cl)c1cccc2c1C(=O)c1ccc(N3CCC(Cc4ccccc4)CC3)cc1S2(=O)=O", "activity change, negative = inhibition": "inactive: 314%"}, {"smiles": "O=C1NC[C@H](c2ccccc2)OC(=O)[C@H](Cc2ccc(F)cc2)CC/C=C/C[C@@H]1CC(=O)N(CCO)Cc1ccccc1", "activity change, negative = inhibition": "inactive: -12%"}, {"smiles": "O=C(N/N=C/c1cc(Cl)cc(Cl)c1O)c1ccncc1", "Potency": "active: 31.6 µM"}, {"smiles": "CCO[C@@H]1OC(C(=O)N2CCN(C)CC2)=C[C@H](c2coc3ccccc3c2=O)[C@H]1CCCO", "activity change, negative = inhibition": "inactive: -12.8%"}, {"smiles": "Cc1cccc(NC(=O)c2oc3ccccc3c2NC(=O)Cc2coc3cc(C)cc(C)c23)c1", "activity change, negative = inhibition": "inactive: 37.1%"}, {"smiles": "Cc1cccc(CN2C(=O)c3ccccc3Sc3ccc(C(=O)NCCCN4CCOCC4)cc32)c1", "activity change, negative = inhibition": "inactive: -25.4%"}, {"smiles": "C=CC[C@@H](Cc1ccc(F)cc1)C(=O)OC[C@@H]1CCCN1C(=O)[C@H](CC=C)CC(=O)NCCO", "activity change, negative = inhibition": "inactive: -16.3%"}, {"smiles": "CCc1ccc(NC(=O)C2CCN(S(=O)(=O)c3c(C)noc3C)CC2)cc1", "activity change, negative = inhibition": "inactive: -17.5%"}, {"smiles": "COC(=O)C[C@H]1C[C@H]2c3cc(NS(=O)(=O)c4ccc(OC)cc4)ccc3O[C@H]2[C@H](CO)O1", "activity change, negative = inhibition": "inactive: -3.85%"}, {"smiles": "C[C@H](CO)NC(=O)c1nc[nH]c1C(=O)N[C@H](C)c1ccccc1", "activity change, negative = inhibition": "inactive: -24.8%"}, {"smiles": "C=CC[C@@H](Cc1ccc(F)cc1)C(=O)OC[C@H]1CCCN1C(=O)[C@@H](CC=C)CC(=O)N(CCO)Cc1ccccc1", "activity change, negative = inhibition": "inactive: -26.6%"}, {"smiles": "COc1cc(/C=C2\\SC(=Nc3ccc(Cl)c(C(=O)O)c3)NC2=O)c(Br)c(Br)c1O", "Potency": "active: 17.8 µM"}, {"smiles": "C[C@@H]1CN([C@H](C)CO)C(=O)CCCn2nncc2CO[C@@H]1CN(C)S(=O)(=O)c1ccccc1C#N", "activity change, negative = inhibition": "inactive: 0.649%"}, {"smiles": "O=C(NC1CCCCC1)c1cccc2c1C(=O)c1ccc(N3CCC(Cc4ccccc4)CC3)cc1S2(=O)=O", "activity change, negative = inhibition": "inactive: 224%"}, {"smiles": "O=C(O)c1cc(-c2ccco2)nc2ccc(Br)cc12", "activity change, negative = inhibition": "inactive: -18.5%"}, {"smiles": "CCOC(=O)c1c(Nc2ccc(Cl)cc2)sc(/C=C2\\C=Nc3ccccc32)c1O", "activity change, negative = inhibition": "inactive: 74.5%"}, {"smiles": "COC(=O)N[C@@H]1C[C@H]2[C@@H]3CC[C@H]4C[C@@H](OC)CC[C@]4(C)[C@H]3CC[C@@]12C", "activity change, negative = inhibition": "inactive: -17.2%"}]}]}
